Test results from PubChem BioAssay AID1345083 (National Center for Advancing Translational Sciences (NCATS), 2018).
The campaign covered roughly 94,000 compounds. About 6,200 (6.6%) were called active. The shares of active, inactive and inconclusive entries below differ from those in the screen. Calls come from the whole dose curve; as a rule, active = well fitted inhibition curve with a large enough effect; inconclusive = small, poorly fitted or top-dose-only effect; inactive = flat fitted curve, though single readings scatter. Where the call is inconclusive, the potency comes from a doubtful curve fit.

Assay: Cytotoxic Profiling in HEK 293 Cell Line of Diverse Libraries Using Quantitative High-Throughput Screening; note: nearly all actives have a fitted effect of over 60% in size
Details: HEK 293 viability, ATP luminescence (CellTiter-Glo), 48-72 h; series mostly up to 115 µM
In short: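 ATP-coupled CellTiter-Glo luminescence served as viability read-out, recorded 10 min after reagent addition at room temperature. HEK 293 cells, 250 cells/well, had been incubated with pintool-transferred compound for 48 or 72 hr at 37 degree Celsius.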
Potency is the fitted concentration of half-maximal effect; tags give direction and shape of the fitted curve.

Compound | Potency
CCc1cnc(N2CCC3(CC2)C(=O)Nc2cc(OCc4ccccc4)c(OC)cc23)nc1 | inconclusive: 56.2 µM [inhibitor, partial curve, poor fit]
COc1cc2c(cc1Oc1ccccc1)NC(=O)C21CCN(c2nccs2)CC1 | inconclusive: 39.8 µM [inhibitor, partial curve, poor fit]
CC(=O)c1cccc(NC(=O)NC[C@H]2C[C@@H]3CCN2C[C@@H]3c2cc(-c3cccs3)nc(C)n2)c1 | active: 22.4 µM
Cc1ccc(CN2CC[C@H]3CC[C@@H](C2)N3)s1 | inconclusive: 100 µM [inhibitor, partial curve, poor fit]
O=C1Nc2ccccc2CC12CCN2Cc1cccnc1 (centres undefined) | inconclusive: 50.1 µM [inhibitor, partial curve, poor fit]
Cc1cccc(CN2C[C@@H]3C[C@H]2C(=O)N(C)c2ccccc2O3)n1 | inactive
CCOC(=O)[C@H]1CN(C(=O)c2cccc(OC)c2)[C@]2(C)C(=O)N(CC3CC3)c3ccccc3[C@H]12 | inconclusive: 35.5 µM [inhibitor, partial curve, poor fit]
CN1CCN(C[C@H]2CN3CC[C@H]2C[C@@H]3CNS(=O)(=O)c2ccccc2)CC1 | inactive
O=C(Nc1ccc2n(c1=O)C[C@H]1C[C@@H]2CN(CC2CCCCC2)C1)C1CCCCC1 | active: 56.2 µM
COCCC(=O)N1[C@H]2CC[C@@H]1c1cnc(C)nc1C2 | inactive
O=S(=O)(NC[C@H]1C[C@@H]2CCN1C[C@@H]2CN1CCN(c2ccccc2)CC1)c1ccccc1 | inconclusive: 89.1 µM [inhibitor, single point]
CC(=O)NC[C@H]1C[C@@H]2CCN1C[C@@H]2c1cc(-c2ccc3ccccc3c2)nn1C | active: 56.2 µM
COc1ccc(-c2cc([C@H]3CN4CC[C@H]3C[C@@H]4CNC(=O)c3ccco3)n(C)n2)cc1 | inconclusive: 126 µM [inhibitor, single point]
Cc1ccsc1C(=O)N1[C@H]2CC[C@@H]1c1cnc(-c3ccccc3)nc1C2 | active: 10 µM
Nc1cccc(-c2cn(C[C@H]3CC4CCN3C[C@@H]4C(=O)NCc3ccc(F)cc3)nn2)c1 (some centres undefined) | inactive
Cc1cnc(N2CC3CCC(C2)N3CC(F)(F)F)c([N+](=O)[O-])c1 | inactive
COc1cc2c(cc1OC1CCCC1)NC(=O)C21CCN(C(=O)c2ccccc2)CC1 | inconclusive: 89.1 µM [inhibitor, partial curve, poor fit]
Cc1ccccc1-c1ccc2n(c1=O)C[C@H]1C[C@@H]2CN(C(=O)Nc2ccccc2)C1 | inactive
Cc1cccn2c(CC(=O)N3CCN(C)[C@@H]4CS(=O)(=O)C[C@@H]43)cnc12 | inconclusive: 35.5 µM [inhibitor, full curve]
CC(C)NC(=O)OC[C@H]1C[C@@H]2CCN1C[C@@H]2c1cc(-c2ccc(F)cc2)nn1C | active: 112 µM
Fc1cccc(CC2CCOC3(CCNCC3)C2)c1 (centres undefined) | inconclusive: 89.1 µM [inhibitor, partial curve]
Cc1cc(CN2CCC3CC(=O)NCCC3C2)cc(C)n1 (centres undefined) | inactive

Compound | Potency
Cc1nc(-c2ccc(N(C)C)cc2)cc([C@H]2CN3CC[C@H]2C[C@@H]3CNC(=O)c2ccco2)n1 | inconclusive: 50.1 µM [inhibitor, partial curve, poor fit]
C=C[C@H]1CN2CC[C@H]1C[C@@H]2CNS(=O)(=O)c1cccc(C#N)c1 | inactive
O=C(O)C1=NOC2CN(Cc3cccnc3)CC12 (centres undefined) | inactive
O=C(CCc1nc2ccccc2s1)N1[C@H]2CC[C@@H]1c1cnc(-c3ccc(F)cc3)nc1C2 | active: 39.8 µM
O=C(N1[C@H]2CC[C@@H]1c1cnc(-c3ccc(F)cc3)nc1C2)C1(c2ccccc2)CC1 | inconclusive: 50.1 µM [inhibitor, partial curve, poor fit]
CN(C)Cc1cn(C[C@H]2CC3CCN2C[C@@H]3C(=O)NCc2ccc3c(c2)OCO3)nn1 (some centres undefined) | inactive
COc1cncc(CN2CCC3(CC2)C(=O)Nc2cc(OCC4CC4)c(OC)cc23)c1 | inconclusive: 100 µM [inhibitor, partial curve, poor fit]
COc1cc2c(cc1OC1CCCC1)NC(=O)C21CCN(C(=O)C(C)C)CC1 | inconclusive: 112 µM [inhibitor, partial curve]
COCC1CN(Cc2ccsc2)CC12CCNCC2 (centres undefined) | inactive
CCNC(=O)N1[C@H]2CC[C@@H]1c1cnc(-c3ccc(F)cc3)nc1C2 | inconclusive: 50.1 µM [inhibitor, partial curve, poor fit]
Nc1nc(N2CC3CCC(C2)N3CC(F)(F)F)c2[nH]cnc2n1 | inconclusive: 28.2 µM [inhibitor, full curve, poor fit]
CC[C@H]1CN2CC[C@H]1C[C@@H]2CNC(=S)Nc1ccc(N(C)C)cc1 | inconclusive: 126 µM [inhibitor, single point]
O=C(Cc1ccc(F)cc1F)N1CCN(Cc2ccccc2)CC(O)C1 (centres undefined) | inconclusive: 89.1 µM [inhibitor, single point]
CCOC(=O)[C@H]1CN(C(=O)NC2CCCC2)[C@]2(C)C(=O)N(CC3CC3)c3ccccc3[C@H]12 | active: 31.6 µM
COc1ccc(CNC[C@H]2C[C@@H]3CCN2C[C@@H]3c2cc(-c3cccs3)nn2C)cc1 | active: 44.7 µM
COc1cc2c(cc1OCc1ccccc1)N(C(=O)CC1CC1)CC21CCN(C)CC1 | active: 112 µM
CC(C)NC(=O)N1[C@H]2CC[C@@H]1c1cnc(-c3ccc(F)cc3)nc1C2 | inconclusive: 39.8 µM [inhibitor, partial curve, poor fit]
c1ccc2c(CC3CN4CCCC4CN3)c[nH]c2c1 (centres undefined) | inactive
O=C(NCc1ccc(F)cc1)[C@H]1CN2CC[C@H]1C[C@@H]2Cn1cc(CC2CCCCC2)nn1 | inconclusive: 89.1 µM [inhibitor, single point]
COc1ccc(-c2cc([C@H]3CN4CC[C@H]3C[C@@H]4CNC(=O)c3cccs3)nc(C)n2)cc1OC | inconclusive: 50.1 µM [inhibitor, partial curve, poor fit]
Cn1nccc1C(=O)N1[C@H]2CC[C@@H]1c1cnc(-c3ccc(F)cc3)nc1C2 | inconclusive: 35.5 µM [inhibitor, partial curve]
CCOC(=O)[C@H]1CN(C(=O)OCC)[C@]2(C)C(=O)N(C)c3ccccc3[C@H]12 | inconclusive: 89.1 µM [inhibitor, single point]

Compound | Potency
O=S(=O)(NC[C@H]1C[C@@H]2CCN1C[C@@H]2CN1CCc2ccccc2C1)c1ccc(Cl)cc1 | active: 22.4 µM
O=C(N1[C@H]2CC[C@@H]1c1cnc(-c3ccccc3)nc1C2)C1(c2ccccc2)CC1 | inconclusive: 50.1 µM [inhibitor, partial curve, poor fit]
O=C(Cc1c[nH]c2ncc(-c3cccnc3)cc12)N1CCN(Cc2ccccc2)CC1 | inconclusive: 100 µM [inhibitor, partial curve, poor fit]
C#C[C@H]1CN2CC[C@H]1C[C@@H]2CNCc1cccc(Cl)c1 | active: 126 µM
Cc1nc(-c2ccccc2Br)cc([C@H]2CN3CC[C@H]2C[C@@H]3CNC(=O)c2ccccc2)n1 | inconclusive: 79.4 µM [inhibitor, partial curve, poor fit]
Cn1nc(-c2ccc(F)cc2)cc1[C@H]1CN2CC[C@H]1C[C@@H]2CNCc1ccccn1 | active: 63.1 µM
COc1nc2ccccc2cc1CN1CCC2(C1)CN(C)C(=O)O2 (centres undefined) | inconclusive: 17.8 µM [inhibitor, full curve, poor fit]
Fc1ccc(CN2CCCC3(CC(c4ccccn4)=NO3)C2)cc1 (centres undefined) | inactive
O=C(NC[C@H]1C[C@@H]2CCN1C[C@@H]2CN1CCCC1)c1ccccc1 | inconclusive: 112 µM [inhibitor, partial curve, poor fit]
COCC(=O)NC[C@H]1C[C@@H]2CCN1C[C@@H]2CN1CCN(C)CC1 | inactive
CCOC(=O)N1CCN(C2CCCN(C(=O)Cc3ccc(C)c(C)c3)C2)CC1 (centres undefined) | inactive
CC(=O)N1C[C@@H]2C[C@H](C1)c1ccc(NC(=O)COc3ccccc3)c(=O)n1C2 | inactive
COc1cc2c(cc1Oc1ccccc1)NC(=O)C21CCN(c2ncccn2)CC1 | inconclusive: 89.1 µM [inhibitor, partial curve, poor fit]
CN(C[C@H]1CN2CC[C@H]1C[C@@H]2CNS(=O)(=O)c1cccs1)c1ccccc1 | inconclusive: 112 µM [inhibitor, partial curve, poor fit]
COc1ccc(-n2cc(C3=CCN(CCN4CCOCC4)CC3)cn2)cc1 | inconclusive: 50.1 µM [inhibitor, partial curve, poor fit]
CN(CCc1ccccn1)C[C@H]1CN2CC[C@H]1C[C@@H]2CNS(=O)(=O)c1ccc(Cl)cc1 | inconclusive: 50.1 µM [inhibitor, partial curve, poor fit]
CCOC(=O)[C@@H]1[C@H]2c3ccccc3N(C)C(=O)[C@H]2N(C(=O)c2cccs2)[C@@H]1c1ccccc1 | active: 79.4 µM
O=C(Nc1ccc2n(c1=O)C[C@H]1C[C@@H]2CN(C(=O)c2ccccn2)C1)c1ccc(F)cc1 | inactive
CSc1cccc(NC(=O)NC[C@H]2C[C@@H]3CCN2C[C@@H]3CN(C)Cc2ccccc2)c1 | active: 28.2 µM
COC[C@H]1CCCN1C[C@H]1CN2CC[C@H]1C[C@@H]2CNC(=S)Nc1ccc(-n2cccn2)cc1 | inconclusive: 89.1 µM [inhibitor, single point]
